The whole screen tested about 310,000 compounds, of which about 2,200 (0.71%) showed an effect of 50% or more. The effect is printed as a negative number. The list shows a part of the results.
The molecules below were run against human ether-à-go-go-related gene (hERG) potassium channel (human, UniProt Q12809) (assay: primary screen, population patch clamp on CHO cells stably expressing hERG).
human ether-à-go-go-related gene (hERG) potassium channel, sequence (Q12809 whole entry, looked up): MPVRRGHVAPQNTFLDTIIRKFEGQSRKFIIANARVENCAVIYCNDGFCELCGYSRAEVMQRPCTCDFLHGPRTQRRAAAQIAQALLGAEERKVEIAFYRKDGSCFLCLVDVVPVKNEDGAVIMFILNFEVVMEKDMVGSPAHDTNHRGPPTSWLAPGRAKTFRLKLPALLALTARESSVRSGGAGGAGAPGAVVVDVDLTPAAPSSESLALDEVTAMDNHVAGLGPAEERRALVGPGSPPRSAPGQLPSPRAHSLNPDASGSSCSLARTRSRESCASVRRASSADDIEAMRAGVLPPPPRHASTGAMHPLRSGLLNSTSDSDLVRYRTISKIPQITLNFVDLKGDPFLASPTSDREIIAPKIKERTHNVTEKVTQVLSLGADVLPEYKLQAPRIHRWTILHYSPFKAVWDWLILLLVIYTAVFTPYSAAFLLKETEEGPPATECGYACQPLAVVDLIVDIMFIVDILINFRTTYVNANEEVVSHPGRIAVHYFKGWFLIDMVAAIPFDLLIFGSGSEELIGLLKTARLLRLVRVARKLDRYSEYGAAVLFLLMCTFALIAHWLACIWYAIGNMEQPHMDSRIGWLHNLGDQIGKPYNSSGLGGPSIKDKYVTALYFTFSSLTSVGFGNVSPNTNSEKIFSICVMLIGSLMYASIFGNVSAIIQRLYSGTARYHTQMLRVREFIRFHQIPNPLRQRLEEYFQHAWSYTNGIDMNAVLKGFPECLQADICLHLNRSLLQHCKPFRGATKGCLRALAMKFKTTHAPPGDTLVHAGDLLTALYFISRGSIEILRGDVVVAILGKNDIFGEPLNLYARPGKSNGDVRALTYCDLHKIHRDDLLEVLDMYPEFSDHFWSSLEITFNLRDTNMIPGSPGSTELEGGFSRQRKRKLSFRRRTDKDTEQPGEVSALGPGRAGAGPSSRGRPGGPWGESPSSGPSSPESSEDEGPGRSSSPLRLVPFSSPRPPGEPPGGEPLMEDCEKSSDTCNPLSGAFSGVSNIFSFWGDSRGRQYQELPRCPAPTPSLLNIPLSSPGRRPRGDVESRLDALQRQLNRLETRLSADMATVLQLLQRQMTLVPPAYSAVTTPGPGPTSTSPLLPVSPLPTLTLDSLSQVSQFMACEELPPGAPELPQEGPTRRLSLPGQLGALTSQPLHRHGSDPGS

SMILES | hERG current change (%, negative = inhibition) at 1uM [%]
COc1ccccc1NC(=O)C1=C(C)Nc2nc(CCCO)nn2C1c1cccnc1 (stereo not drawn) | 6.16
CC(=O)Nc1cccc(/C(C)=N/NC(N)=S)c1 | 10.3
Fc1ccc(CNCc2ccc(Br)cc2)cc1 | 7.11
COc1ccc(OC)c(CNc2ccc([N+](=O)[O-])cc2C)c1 | 5.54
CC(Nc1nc2ccccc2n2cnnc12)c1ccccc1 (stereo not drawn) | -1.54
CCOCCCNC(=O)C1CC(=O)N(C2CCCC2)C1 (stereo not drawn) | 7.51
COc1ccc2oc(=Nc3cc(F)ccc3F)c(C(N)=O)cc2c1 | -4.13
CCn1c(/C=C/c2ccccc2C)nc2ccccc2c1=O | 3.63
O=C(Nc1ccc(-c2nc3ncccc3o2)cc1)c1ccc([N+](=O)[O-])o1 | 11.6
CCN1C(=O)NC(=O)/C(=C/c2cc(C)n(-c3sc(C)c(C)c3C#N)c2C)C1=O | 14.3
COc1ccc(OCC(=O)NNC(=S)NC(=O)C2CCCCC2)cc1 | 10.3
COc1ccc(NC(=O)CSc2nc(O)cc(=O)n2-c2ccccc2)cc1 | 9.1
CN(c1ccccc1)c1nc(N)c([N+](=O)[O-])c(N2CCCC2)n1 | 8.02
CCCC(C)NC(=O)C1c2ccccc2Oc2ccccc21 (stereo not drawn) | 17.4
CC(=O)n1c2ccccc2c2ccccc21 | 14.4
COc1ccc(-c2cc(C)no2)cc1S(=O)(=O)Nc1ccccc1 | 14.3
Cc1ccc(CSCC(=O)Nc2c(C)n(C)n(-c3ccccc3)c2=O)cc1 | 25.2
COc1ccccc1Nc1nc(Cl)c(C=O)s1 | 7.66
CCc1ccc(S(=O)(=O)NCCc2cn3ccccc3n2)s1 | -2.2
CCOc1ccc(S(=O)(=O)NCc2cccnc2)cc1 | 22
O=c1ccc2cc(S(=O)(=O)Nc3ccc(F)cc3)ccc2o1 | 2.47
COc1cc(C(=O)Nc2ccc3c(c2)nc(C)n3C)cc(OC)c1OC | 17.5
O=C(Cn1ccc([N+](=O)[O-])n1)N1CCCc2ccccc21 | 4.59

SMILES | hERG current change (%, negative = inhibition) at 1uM [%]
CC1(C)CC(NC(=O)C2CCCCC2)CC(C)(C)N1 | 10.6
COc1ccc(-c2[nH]c(-c3ccc(C)cc3)nc2SCC(=O)NCc2ccco2)cc1OC | 14.5
COC(=O)c1ccc2c(=O)n(CC3CCCO3)c(SCC(=O)Nc3ccccc3Cl)nc2c1 (stereo not drawn) | 7.25
CC(C)Cc1nnc(NC(=O)c2ccc([N+](=O)[O-])cc2)s1 | 13
Cc1ccnc(NS(=O)(=O)c2ccc(C(C)(C)C)cc2)c1 | 9.24
Cc1cc(N2CCN(c3ccc([N+](=O)[O-])c4cccnc34)CC2)c2ccccc2n1 | -13.9
Cc1ccc(C(=O)Nc2ccc(S(=O)(=O)N3CCOCC3)cc2)cc1 | 19.3
Nn1cnnc1SCC(=O)N(C1CCCCC1)C1CCCCC1 | 13.9
CCOP(=O)(OCC)C(Nc1ccccn1)c1ccccc1 (stereo not drawn) | 4.13
N#Cc1c(-c2ccccc2Cl)cc(C2CC2)nc1N | 9.39
O=C(c1c(F)cccc1F)N1CCN(c2ncccn2)CC1 | 12.5
Cn1c(N)c(C(=O)CSc2nnc(C3CC3)n2N)c(=O)n(C)c1=O | 3.6
Br.CCOC(=O)c1c(CSC(=N)N)n(-c2ccc(C)cc2)c2cc(Br)c(OC(C)=O)cc12 | -36.7
COc1ccc(NC(=O)ON=C2c3ccccc3-c3ccccc32)cc1 | 7.16
CCCCCn1c(=O)[nH]c2cc(C(=O)N3CCN(CC)CC3)ccc2c1=O | 13.6
C/C(=N/NC(=O)C(O)(c1ccccc1)c1ccccc1)c1ccc([N+](=O)[O-])o1 | -2.41
O=C(Cn1c(=O)oc2ccccc21)N1CCCC1 | 8.6
N#CCSc1nnc(COc2cccc3ccccc23)n1-c1ccccc1 | 8.21
CC(C)(C)NCCOc1ccc2ccccc2c1 | 14.6
COc1cc(C2/C(=C(\O)c3ccc4c(c3)OCCO4)C(=O)C(=O)N2Cc2ccco2)cc(OC)c1OC (stereo not drawn) | 16.2
CCc1ccccc1NC(=O)c1cnc2scc(C)n2c1=O | 1.27
COc1cc(C(=S)N2CCOCC2)cc(OC)c1OC(=O)c1cc([N+](=O)[O-])c(C)c([N+](=O)[O-])c1 | 11.9

From article PMC4336329 (PLoS ONE, 2015)
